According to publication PMC12136788:
This is one part of the list.

B1: chr15:43184406:43184511:+|CDS|ENSG00000137842|unk|FALSE|unique (ssRNA)
RNA: GGGAGUUCUACAGUCCGACGAUCACUGCUGUACAUCUGGCAGGUUUAUUCCUGCUACUUUCUUUAUGCAACAUACGGCACCCUAGCUUUUUUAUUCUCCCCUUUGCGGACCUGGUUGACACUGCUGACACCUGUUCUCAUUCGCAACAGAGGAUUGAGCAUCA
B2: chr12:51809400:51809501:+|3pUTR|ENSG00000196876|unk|total|mutant (ssRNA)
RNA: GGGAGUUCUACAGUCCGACGAUCCUGCCUUGCAGCCGAAGCACUUUGAAGGUAAUUUCACAGUCCACCAGACCCGUUUUGCACCGAACAAACCACAGUAAGUCGGCAAGCAGAGCUUUCUAUCUUGUUGGACCACCCGAAACUCAACAGAGGAUUGAGCAUCA
B3: chrX:27979534:27981334:-|CDS|ENSG00000226372|control|control|control (ssRNA)
RNA: GGGAGUUCUACAGUCCGACGAUCAGAUAUAGUAAACUGUCUUGAACCCCACCCUUACCUACCUGUGUUGGCGACCAGUGGCCUAGAUCAGCAUGUCAGGAUCUGGACACCCACAGCUAAAACUGCCACUGAGCUUACUGGGUUCAACAGAGGAUUGAGCAUCA
B4: chr5:40568104:40569403:-|three_prime_utr|ENSG00000113638|control|control|control (ssRNA)
RNA: GGGAGUUCUACAGUCCGACGAUCGCGUGAGACACCAUGCUCAGUCCUUAACAUCUUUCAAGGGAUGUGAUUCUUUGUGGCAGUAGAAAGGUGCUUUUGAAUUCCUGGAUCCUCUUUUAAACACUAUCAAAUUAGAAUAUACUUCAACAGAGGAUUGAGCAUCA
B5: chr22:46255662:46256560:-|three_prime_utr|ENSG00000130943|control|control|control (ssRNA)
RNA: GGGAGUUCUACAGUCCGACGAUCGUUUCAUGAGUCACAAGCAAGCGUUCCCCCAACUGCUGAGUCUGUGGGAUUAAGGGGAUUAGGGAGUGUCAGUGGCCUAGUCAUGCUUUCUACUCAUGUCCUUCACAAGGCACAUCCCCUCAACAGAGGAUUGAGCAUCA
B6: chrX:155122998:155123099:+|3pUTR|ENSG00000185515|unk|FALSE|unique (ssRNA)
RNA: GGGAGUUCUACAGUCCGACGAUCCUACAUACACACAAAUGAAUGCAUGUAAAAUCUGGUGAUACUGAAUAAAGUCUGUGGUCUAGAUAGCAGUAUAAUAUUAUUGUCAAUGUCUUGGAUGUGAAGUUGUGCUAUAGUUACAAACAACAGAGGAUUGAGCAUCA

Target: MSI1 full-length (mouse, UniProt Q61474 1-362)
Experiment: nsRBNS (natural sequence RNA bind-n-seq); RBNS binding buffer (assumed for nsRBNS): 25 mM Tris pH 7.5, 150 mM KCl, 3 mM MgCl2, 0.01% Triton X-100, 500 ug/ml BSA, 20 U/ml SUPERase-In, 4 C; UNK is unkempt and MSI1 is Musashi-1; names of the RNAs are library labels; protein concentration not given here; high values mean tight binding

UniProt Q61474, sequence (Q61474 whole entry): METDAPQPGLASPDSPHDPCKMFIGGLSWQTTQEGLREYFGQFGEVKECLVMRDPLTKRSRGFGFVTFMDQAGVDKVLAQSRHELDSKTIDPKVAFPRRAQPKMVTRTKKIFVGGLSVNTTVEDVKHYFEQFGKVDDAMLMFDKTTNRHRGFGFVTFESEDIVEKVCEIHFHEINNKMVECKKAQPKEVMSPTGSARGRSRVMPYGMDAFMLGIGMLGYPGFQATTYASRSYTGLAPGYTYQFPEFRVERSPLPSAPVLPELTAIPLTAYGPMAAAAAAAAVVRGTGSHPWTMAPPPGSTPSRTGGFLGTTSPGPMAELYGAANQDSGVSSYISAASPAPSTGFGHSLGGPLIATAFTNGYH

Binder | binding signal
B1 | 0.436 enrichment R
B2 | 0.502 enrichment R
B3 | 1.31 enrichment R
B4 | 1.73 enrichment R
B5 | 0.407 enrichment R
B6 | 2.09 enrichment R
